Experimental data published in PubChem BioAssay AID686970 (National Center for Advancing Translational Sciences (NCATS), 2013).
Among all 360,000 compounds or so, about 6,000 (1.7%) were called active. Inconclusive means that the source gave no clear call. Such entries were picked first, then a sample of the others. Calls come from the whole dose curve; as a rule, active = well fitted cell-killing curve with a large enough effect; inconclusive = small, poorly fitted or top-dose-only effect, or effect the other way; inactive = flat fitted curve, though single readings scatter. Potencies of inconclusive entries are left out as doubtful fits.

Assay: qHTS for induction of synthetic lethality in tumor cells producing 2HG: qHTS for the HT-1080-NT fibrosarcoma cell line;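 note: NT is the 2HG producing partner of a matched IDH1 knockdown line; nearly all actives have a fitted effect of over 55% in size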;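 for activity, negative = less viability: 0% = DMSO-treated cells and -100% = media-only wells without cells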
Settings: HT-1080-NT fibrosarcoma viability, CellTiter-Glo ATP luminescence, 48 h; activity, negative = less viability: at 46.1 µM (top of the series)
Procedure, shortened: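 HT-1080-NT; 750 cells/well; 5% FBS RPMI; 48 h compound, 37 degrees C; CellTiter-Glo luminescence; curve fitting and curve-class assignment.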
Potency is the fitted concentration of half-maximal effect; tags give direction and shape of the fitted curve.

| SMILES | activity, negative = less viability | Potency |
| --- | --- | --- |
| CN1C(=O)C(C2c3ccccc3C(=O)N2Cc2ccccc2)C(=O)N(C)C1=O (configuration not stated) | inactive: 18.6% |  |
| Cn1cccc1/C=C1\C(=O)NC(=O)N(Cc2ccco2)C1=O | inactive: -10.8% |  |
| CC(=O)c1c(C)n(Cc2ccccc2)c2ccc(O)cc12 | inactive: -12.7% |  |
| CSCCC(c1nnnn1Cc1ccccc1)N1CCC(n2c(=O)[nH]c3ccccc32)CC1 (configuration not stated) |  | inconclusive [cytotoxic, partial curve] |
| Cc1cc(C)cc(NC(=O)Cn2c(=O)oc3cc(S(=O)(=O)N4CC(C)CC(C)C4)ccc32)c1 (configuration not stated) |  | inconclusive [cytotoxic, single point] |
| CC12CCC3C(CCC4(O)CC(O)CCC34C=NO)C1(O)CCC2C1=COC(=O)C1 (configuration not stated) |  | active: 0.82 µM |
| Cc1ccc2c(c1)N(N=O)CCC2 | inactive: 8.63% |  |
| Cc1ccc(NC(=O)N2CC2)cc1NC(=O)N1CC1 | inactive: -0.829% |  |
| O=c1cccc2n1C[C@H]1C[C@@H]2CN2CCCC[C@@H]12 | inactive: 2.34% |  |
| O=S(=O)(Nc1c(O)ccc2ccccc12)c1ccc(F)cc1 |  | inconclusive [cytotoxic, partial curve] |
| C=Cn1ccnc1P(=S)(c1nccn1C=C)C1CCCCC1 |  | inconclusive [cytotoxic, single point] |
| CCCCCCn1c(O)c(C=NC2CCCCC2N)c(=O)[nH]c1=O (configuration not stated) | inactive: -5.48% |  |
| O=C(Nc1ccc(F)cc1)Oc1ccc[nH]c1=O |  | inconclusive [cytotoxic, partial curve] |
| O=C(C[N+]12CCC(CC1)C(CO)C2)c1ccc(Br)cc1 (configuration not stated) | inactive: 4.07% |  |
| Clc1ccc(N2CC2c2ccncc2)cc1 (configuration not stated) | inactive: 2.95% |  |
| COc1ccccc1N1CCN(C(CNC(=O)Oc2ccccc2)c2cccnc2)CC1 (configuration not stated) | inconclusive: 43.2% |  |
| CC(C)(O)[C@H]1O[C@H]2CC[C@@]3(C)[C@@](O)(CC[C@H]4Cc5c([nH]c6ccccc56)[C@@]43C)C2=CC1=O |  | inconclusive [cytotoxic, partial curve] |
| CCCOP(=O)(OCCC)C(Nc1cccc(C(F)(F)F)c1)c1ccc(C)cc1 (configuration not stated) |  | inconclusive [cytotoxic, single point] |
| COc1cccc(-n2c(O)c(C=NCCN3CCNCC3)c(=O)[nH]c2=S)c1 | inactive: 6.57% |  |
| Cn1c(O)c(C(=Nc2ccccc2)SCc2ccccc2Cl)c(=O)n(C)c1=O |  | inconclusive [cytotoxic, single point] |
| C#CC1(O)CCC2C3CCC4=CC(=O)CCC4=C3C=CC21C (configuration not stated) |  | inconclusive [cytotoxic, single point] |
| C=C(C=O)C[C@@H]1C[C@H](O)C2OC3C[C@]4(C)OC5/C=C\CC6OC7C(CC=CCC6OC5CCCC4OC3CC2O1)OC1CC2OC3CC(=O)OC3C[C@@H](C)C[C@@]2(C)OC1C[C@@H]7C (some centres not stated) |  | active: 8.2 µM |
